Data taken from paper PMC4336329 (PLoS ONE, 2015).
Screen size: about 310,000 compounds; about 14,000 (4.5%) showed an effect of 50% or more. The effect is printed as a negative number. The list shows a part of the results.

Target: human ether-à-go-go-related gene (hERG) potassium channel (human, UniProt Q12809)
Assay: primary screen, population patch clamp on CHO cells stably expressing hERG
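Note: peak tail current of the secondary pulse compared with the same well before compound.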

Chain of human ether-à-go-go-related gene (hERG) potassium channel (Q12809 whole entry, looked up): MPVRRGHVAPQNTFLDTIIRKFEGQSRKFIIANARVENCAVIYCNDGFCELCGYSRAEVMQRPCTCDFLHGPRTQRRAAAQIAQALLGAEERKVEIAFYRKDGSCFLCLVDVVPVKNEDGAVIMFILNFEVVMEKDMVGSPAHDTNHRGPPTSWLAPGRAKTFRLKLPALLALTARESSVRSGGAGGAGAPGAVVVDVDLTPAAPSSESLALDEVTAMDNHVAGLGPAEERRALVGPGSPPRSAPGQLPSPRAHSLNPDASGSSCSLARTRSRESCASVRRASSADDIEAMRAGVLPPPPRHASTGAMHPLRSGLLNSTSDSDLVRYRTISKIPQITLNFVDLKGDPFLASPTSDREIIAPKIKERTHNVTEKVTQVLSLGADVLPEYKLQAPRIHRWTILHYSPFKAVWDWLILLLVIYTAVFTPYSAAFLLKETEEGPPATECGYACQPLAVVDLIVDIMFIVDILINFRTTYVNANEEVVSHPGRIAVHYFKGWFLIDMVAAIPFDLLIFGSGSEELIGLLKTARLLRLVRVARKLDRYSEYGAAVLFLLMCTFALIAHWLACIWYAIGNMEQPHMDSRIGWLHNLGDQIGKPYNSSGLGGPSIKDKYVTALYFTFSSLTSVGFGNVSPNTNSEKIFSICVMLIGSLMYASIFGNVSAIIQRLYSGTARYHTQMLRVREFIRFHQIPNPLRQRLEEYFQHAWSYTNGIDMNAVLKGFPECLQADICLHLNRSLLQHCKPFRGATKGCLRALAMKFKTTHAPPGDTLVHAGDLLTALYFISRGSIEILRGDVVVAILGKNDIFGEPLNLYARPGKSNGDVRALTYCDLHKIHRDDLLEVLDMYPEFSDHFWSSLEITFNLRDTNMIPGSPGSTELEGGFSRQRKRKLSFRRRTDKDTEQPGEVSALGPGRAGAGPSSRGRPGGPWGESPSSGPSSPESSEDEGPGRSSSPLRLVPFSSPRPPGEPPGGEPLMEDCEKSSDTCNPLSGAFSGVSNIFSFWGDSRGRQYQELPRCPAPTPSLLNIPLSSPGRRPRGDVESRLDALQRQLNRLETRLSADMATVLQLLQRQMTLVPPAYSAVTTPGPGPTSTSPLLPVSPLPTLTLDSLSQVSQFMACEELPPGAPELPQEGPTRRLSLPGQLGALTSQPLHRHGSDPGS

SMILES	hERG current change (%, negative = inhibition) at 10uM
COc1cccc(C(=O)Nc2sc3c(c2C#N)CCN(C(C)=O)C3)c1	9.9%
Cc1ccccc1C(C(=O)NCc1ccco1)N(CC1CCCO1)C(=O)Cn1nnc2ccccc21 (stereo not shown)	0.321%
c1ccc(-n2nnnc2SCCCSc2nc3ccccc3s2)cc1	14.4%
COc1ccccc1NC(=O)CCN1C(=O)/C(=C/c2cc(OC)c(OC)c(OC)c2)SC1=S	13.8%
COc1cc(OC)cc(C(=O)OCC(=O)Nc2ccc(N3CCCCC3)cc2)c1	0.0136%
Cc1nc(S(=O)(=O)c2ccc(Cl)cc2)c(NCc2ccccc2)o1	17.4%
Cc1cc(NC(=O)CSc2nnc(-c3ccoc3C)n2N)no1	19.7%
COc1ccc(-c2csc(NC(=O)Cn3nc(C)cc3C)n2)cc1	12.9%
CCOC(=O)c1ccc(NC(=O)CSc2ccc(-c3ccncc3)nn2)cc1	19.4%
CCN(CC)C(=O)C(=O)N/N=C/c1cccc(Br)c1	-8.07%
Cc1cc(OCC(=O)NNC(=O)c2cccs2)ccc1Br	7.9%
O=C(O)c1cc([N+](=O)[O-])ccc1NCCCc1ccccc1	30%
CN(C(=O)CN1C(=O)S/C(=C\c2ccccc2Cl)C1=O)C1CCS(=O)(=O)C1 (stereo not shown)	6.68%
CC(C)CCNC(=O)C(c1ccco1)N(CCCO)C(=O)Cn1nnc(-c2ccc(F)cc2)n1 (stereo not shown)	-20.2%
CCCCC1CCC(C(=O)N(CC(C)C)c2c(N)n(CCCC)c(=O)[nH]c2=O)CC1 (stereo not shown)	-3.04%
CCCCOc1ccc(C(=S)N2CCC(C(N)=O)CC2)cc1	6.67%
CCCCOc1ccc(-c2[nH]ncc2C=O)cc1	5%
Cc1ccc(-n2c3c(cc(C(=O)NC4CCSC4=O)c2=O)C(=O)CCC3)cc1 (stereo not shown)	-6.67%
CCOC(=O)CSc1nc(CC)nc2ccccc12	4.53%
O=C(NCCc1ccccc1)C1CCN(C(=O)N2CCOc3ccccc32)CC1	-4.73%
COC(=O)/C(C#N)=C/c1c(Oc2cccc(C)c2C)nc2ccccn2c1=O	-12.6%
CCOc1ccccc1N1CCN(CC(O)COC2CCCc3ccccc32)CC1 (stereo not shown)	-49.7%

SMILES	hERG current change (%, negative = inhibition) at 10uM
O=C(c1cc(-c2ccc3c(c2)OCO3)on1)N1CCN(c2ccccc2)CC1	2.3%
COc1ccc(-n2nc(C(=O)NCC(=O)NCCC3=CCCCC3)c3ccccc3c2=O)cc1OC	3.49%
COc1ccc(S(=O)Cc2ccc(C(=O)N3CCN(c4cccc(C)c4C)CC3)o2)cc1 (stereo not shown)	-23.8%
O=C(c1ccccc1)N1CCN(c2ncnc3sc4c(c23)CCC4)CC1	-56%
Cc1ccc(OC(=O)CCC(=O)OCCCC(F)(F)C(F)(F)F)cc1	8.39%
COc1ccc(CCNC(=O)C2=CCN(S(=O)(=O)c3ccc(F)cc3)CC2)cc1OC	-15.1%
Cn1nc(C(C)(C)C)cc1NC(=O)Nc1ccc(F)cc1F	5.93%
Cc1c([C@@H]2C[C@H]3CN(Cc4cccc(Cl)c4)C(=O)[C@]34CCCN24)cnn1C	-45.5%
Cc1ccc(CC(=O)NCC2CCCCC2)cc1	7.16%
Cc1ccc2c(c1)c1nc3ccccc3nc1n2C	21.3%
Cc1ccc(-c2nc(CS(=O)CC(=O)NCCCN3CCN(Cc4ccccc4)CC3)c(C)o2)cc1 (stereo not shown)	-38.2%
COc1ccc(CCn2c(-c3cc([N+](=O)[O-])cc([N+](=O)[O-])c3)nc3nc4ccccc4nc32)cc1OC	-14.6%
Cc1cccc(N2C(=O)C3CCCN3C2=S)c1 (stereo not shown)	11.2%
O=C(CNC(=O)c1ccc(Br)o1)NCC1CCCCC1	3.39%
Nc1nsc2ccccc12	14.3%
O=P(c1ccccc1)(c1ccccc1)N(c1ccccc1)c1ccccc1	4.16%
CC(C)Cn1c(N)c(C(=O)COC(=O)c2cnc(Cl)c(Cl)c2)c(=O)n(C)c1=O	-71.1%
Cc1cc(Br)ccc1OCCCCNC(C)(C)C.O=C(O)C(=O)O	-53.9%
N=c1c(C(=O)NCCc2ccccc2)cc2c(=O)n3ccccc3nc2n1Cc1ccco1	-77.9%
O=C(COC(=O)CCSc1ccc(Cl)cc1)NCCc1ccccc1	14.8%
Cc1ccnc(NC(=O)CCCNC(=O)c2ccc(Cl)cc2)c1	5.45%
